Results: PubChem BioAssay AID504832 (National Center for Advancing Translational Sciences (NCATS), 2011)
In all, about 310,000 compounds went through this assay and about 18,000 (5.8%) were called active. Inconclusive means that the source gave no clear call. Such entries were picked first, then a sample of the others. Calls come from the whole dose curve; as a rule, active = well fitted inhibition curve with a large enough effect; inconclusive = small, poorly fitted or top-dose-only effect, or another doubt; inactive = no such curve, though single readings can be large or run the other way. Potencies of inconclusive entries are left out as doubtful fits.

assay: Primary qHTS for delayed death inhibitors of the malarial parasite plastid, 48 hour incubation; conditions: P. falciparum luciferase growth in erythrocytes; series mostly up to 28.7 µM; activity change, negative = inhibition: at the top concentration
Summary of the method: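 Parasite viability was followed by luminescence of a genomically integrated firefly luciferase. Cultures held 0.1% parasitemia at 2% hematocrit (final), incubated under 5% CO2 at 37 C.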
% is set by controls: 0 for no effect and ±100 for the full control effect; potency is the fitted concentration of half-maximal effect; tags give direction and shape of the fitted curve.

Row | Structure (SMILES) | Potency | activity change, negative = inhibition
1 | CCc1ccc(OCC(=O)NC(NC(=S)Nc2ccccc2C)C(Cl)(Cl)Cl)cc1 (stereo unspecified) | inconclusive [inhibitor, single point] | 
2 | c1ccc2c(c1)nc(-c1ccncc1)n2CCNc1nc(CN2CCCCC2)cs1 | inconclusive [inhibitor, full curve, poor fit] | 
3 | COc1ccc(C2CC(c3ccc4ccccc4c3)=NN2C(=O)CN2C(=O)CCC2=O)cc1 (stereo unspecified) | active: 9.28 µM | 
4 | COC1CCN(Cc2c(C(=O)N3CCN(C4CCCCC4)CC3)nc3ccccn23)CC1 |  | inactive: 8.7%
5 | Cc1onc(-c2ccccc2)c1C(=O)Nc1nnc(N2CCCCCC2)s1 | inconclusive [inhibitor, single point] | 
6 | COc1ccc(CNc2nc(SCC(=O)NCc3ccco3)nc3ccccc23)cc1 | active: 9.28 µM | 
7 | COc1cc(NC(=O)COc2ccc3c(C)cc(=O)oc3c2C)cc(OC)c1OC | inconclusive [inhibitor, partial curve] | 
8 | Nc1ccccc1SCc1ccccc1 |  | inactive: 28.2%
9 | Cc1cc(C)n2nc(-c3sccc3-n3c(C)ccc3C)cc2n1 | inconclusive [inhibitor, single point] | 
10 | CN(CC(=O)Nc1ccc(S(=O)(=O)N2CCCC2)cc1)CC(=O)Nc1cccc(F)c1 | inconclusive [inhibitor, partial curve, poor fit] | 
11 | C[C@]12C=CC(=O)C=C1CC[C@@H]1[C@@H]2[C@@H](O)C[C@@]2(C)[C@H]1CC[C@]2(O)C(=O)COC(=O)CCC(=O)NCCc1ccc(O)cc1 | inconclusive [inhibitor, single point] | 
12 | CCOc1ccc2nc(SCC(=O)Nc3ccc4[nH]c(=O)[nH]c4c3)[nH]c2c1 | inconclusive [inhibitor, single point] | 
13 | Cc1ccc(NC(=O)COc2ncnc3sccc23)cc1S(=O)(=O)N(C)C | inconclusive [inhibitor, partial curve, poor fit] | 
14 | CCOC(=O)c1ccsc1NC(=O)c1ccco1 |  | inactive: 23.7%
15 | Cc1ccccc1NC(=O)C1CCN(S(=O)(=O)c2ccc3c(c2)NC(=O)C(C)S3)CC1 (stereo unspecified) | inconclusive [inhibitor, single point] | 
16 | O=C(NCc1ccco1)C(c1cccs1)N(Cc1ccccc1)C(=O)Cn1nnc2ccccc21 (stereo unspecified) | inconclusive [inhibitor, partial curve] | 
17 | CCOCCCNC(C(=O)Nc1ccc(OC)c(Cl)c1)c1ccccc1 (stereo unspecified) | inconclusive [inhibitor, single point] | 
18 | CCOC(=O)c1ccc(N2C(=O)c3n[nH]c(C)c3C2c2ccc(O)cc2)cc1 (stereo unspecified) |  | inactive: 28.5%
19 | O=C(c1cc(-c2ccc(F)cc2)no1)N1CCN(Cc2ccc3c(c2)OCO3)CC1 | inconclusive [inhibitor, single point] | 
20 | Cn1nnc(NC(=S)NC(=O)c2ccccc2)n1 | inconclusive [inhibitor, partial curve, poor fit] | 
21 | Cc1ccc(N(C(=O)CCl)C(C(=O)NC2CCCCC2)c2cccnc2)cc1C (stereo unspecified) | inconclusive [inhibitor, single point] | 
22 | CCN(CC)S(=O)(=O)c1cc(C(=O)OCC(=O)c2ccc3c(c2)NC(=O)CO3)ccc1Cl |  | inactive: -0.225%
23 | COc1ccc2cc(C(=O)NCCCN3CCCC3=O)[nH]c2c1 |  | inactive: 25.5%
24 | CCOC(=O)C1(Cc2cccc(F)c2)CCN(C2CCOCC2)CC1 |  | inactive: 0.239%

Row | Structure (SMILES) | Potency | activity change, negative = inhibition
25 | CCCc1cc(NCCCCO)n2c(nc3ccccc32)c1C#N | active: 9.28 µM | 
26 | COC(=O)c1sccc1NC(=O)Nc1ccccc1C |  | inactive: 12.4%
27 | O=C(Nc1ccccc1)N1CCCN(c2nccc(C(F)(F)F)n2)CC1 | inconclusive [inhibitor, partial curve, poor fit] | 
28 | CCc1ccc(C(=O)COC(=O)CCc2nc3ccccc3c(=O)[nH]2)cc1 |  | inactive: 12.1%
29 | Cc1cccc(Nc2ncnc3c2cnn3Cc2ccccc2)c1 | inconclusive [inhibitor, partial curve] | 
30 | Cc1nn(CC(=O)Nc2ccc(S(=O)(=O)N(C)C)cc2)c(C)c1[N+](=O)[O-] |  | inactive: -3.1%
31 | COc1cccc(CN2CCNC(=O)C2CC(=O)NCc2cn3cccc(C)c3n2)c1OC (stereo unspecified) |  | inactive: -15.9%
32 | CCCCS(=O)(=O)N1CCN(S(=O)(=O)c2ccc(Cl)s2)CC1 |  | inactive: 8%
33 | COc1ccc(S(=O)(=O)N(C)c2ccc(OCC(=O)Nc3cc(C)on3)cc2)cc1 | inconclusive [inhibitor, single point] | 
34 | COc1ccccc1CN(C)C(=O)CN1CCN(S(=O)(=O)c2ccc3c(c2)OCCCO3)CC1 | inconclusive [inhibitor, single point] | 
35 | OCCNc1c2ccccc2nc2ccccc12 | inconclusive [inhibitor, partial curve, poor fit] | 
36 | O=C(NC1CCCC1)C1CCN(C(=O)c2ccc(-c3ccccc3)cc2)CC1 | inconclusive [inhibitor, partial curve, poor fit] | 
37 | Fc1ccc(Cn2c(SCc3ccc(F)c(F)c3)nnc2C(F)(F)F)cc1 |  | inactive: 51.6%
38 | CC(C)COP(=O)(OCC(C)C)C(O)c1ccc(N(C)C)cc1 (stereo unspecified) |  | inactive: 5.54%
39 | COc1ccc(-c2noc(C3CCCN(C(=O)c4cccc(F)c4)C3)n2)cc1 (stereo unspecified) |  | inactive: -0.592%
40 | N#Cc1ccc(C(=O)OCC(=O)NC2CCCC2)cc1 |  | inactive: 27.5%
41 | CCN(CC)c1ccc(/C=N/NC(=O)c2ccc3nc[nH]c3c2)c(O)c1 | inconclusive [inhibitor, partial curve] | 
42 | CCN(C(=O)CN1CCN(C)CC1)c1c(N)n(Cc2ccccc2)c(=O)[nH]c1=O |  | inactive: 3.4%
43 | COc1ccccc1C(=O)NC(CCSC)C(=O)NCc1ccccn1 (stereo unspecified) |  | inactive: 18.9%
44 | CCc1cccc(OCC(=O)Nc2ccccc2N2CCCC2)c1 | inconclusive [inhibitor, single point] | 
45 | O=C(Cc1ccc([N+](=O)[O-])cc1)N/N=C/c1ccc([N+](=O)[O-])o1 | inconclusive [inhibitor, single point] | 
46 | Cc1ccc(CNS(=O)(=O)c2ccc3c(c2)NC(=O)CS3)cc1 |  | inactive: -9.2%
47 | Cc1ccc(C(=O)N2CCc3ccccc32)cc1NC(=O)c1ccco1 | inconclusive [inhibitor, partial curve, poor fit] | 
48 | COCc1nnc(NC(=O)CC(c2ccccc2)c2ccccc2)s1 | inconclusive [inhibitor, single point] | 

Row | Structure (SMILES) | Potency | activity change, negative = inhibition
49 | Fc1ccc(F)c(C2=NNC(=Nc3ccccc3F)SC2)c1 | inconclusive [inhibitor, single point] | 
50 | O=C(Cc1n[nH]c(=O)c2ccccc12)N1CCN(c2ccc(F)cc2)CC1 | inconclusive [inhibitor, full curve, poor fit] | 
51 | Cc1ccc(NC(=O)C[n+]2ccn(C3=C([O-])c4ccccc4C3=O)c2)cc1 |  | inactive: 33.4%
52 | COc1ccccc1/C=C/C(=O)NC(=S)N1CCN(C)CC1 |  | inactive: -1.42%
53 | CCO[C@H]1OC(C(=O)Nc2ccccc2)=C[C@@H](c2ccc(C(F)(F)F)cc2)[C@@H]1CCCO | inconclusive [inhibitor, single point] | 
54 | CCOC(=O)c1oc2ccccc2c1NC(=O)c1cccc(OC)c1OC | inconclusive [inhibitor, single point] | 
55 | Cc1nn(CC(=O)N(C)C)c(C)c1S(=O)(=O)N1CCOCC1 |  | inactive: -2.2%
56 | CCCNS(=O)(=O)c1ccc(OCC(=O)N2CCC(C(=O)OCC)CC2)cc1 | inconclusive [inhibitor, single point] | 
57 | Cc1ccc(Nc2ccc(C(=O)NCCc3ccccc3)cn2)cc1 | inconclusive [inhibitor, single point] | 
58 | CCn1c(/C=C/c2cccc([N+](=O)[O-])c2)nc2ccccc2c1=O | inconclusive [inhibitor, single point] | 
59 | S=C(NCc1cccnc1)Nc1ccc(Cl)c(Cl)c1 |  | inactive: -30.7%
60 | Cc1ccc(-n2nc3c(=O)n(CCCC(=O)NCc4ccccc4F)nc(C)c3c2C)cc1 | inconclusive [inhibitor, single point] | 
61 | CC(=O)Nc1ccc(Nc2nnc(-c3ccc(C)c(S(=O)(=O)NCCO)c3)c3ccccc23)cc1 | inconclusive [inhibitor, partial curve] | 
62 | O=C(COc1ccc(Br)cc1)N1CCN(c2ncccn2)CC1 | inconclusive [inhibitor, single point] | 
63 | COc1cccc2c1Oc1ncccc1N(C(=O)CCC(=O)NCc1ccc(C)cc1)C2 | inconclusive [inhibitor, single point] | 
64 | O=C(CSCc1c(Cl)cccc1Cl)NCc1ccco1 | inconclusive [inhibitor, single point] | 
65 | O=C1N(CN2CCOCC2)c2ccccc2C12OCC(CCl)O2 (stereo unspecified) | inconclusive [inhibitor, partial curve, poor fit] | 
66 | COc1ccccc1NC(=O)c1c(N=Cc2c(O)ccc3ccccc23)cnn1C | active: 7.38 µM | 
67 | COc1ccc(Br)cc1CN(C)CC(O)COc1ccc(Br)cc1 (stereo unspecified) | inconclusive [inhibitor, single point] | 
68 | O=C(COC(=O)c1ccccn1)NC1CCCCC1 |  | inactive: 42.9%
69 | COc1ccc(Br)cc1C(=O)NC(=S)Nc1ccc(CN2CCOCC2)cc1 | inconclusive [inhibitor, single point] | 
70 | COC(c1ccccc1)c1nnc(CCC(=O)NCCC(C)C)o1 (stereo unspecified) |  | inactive: 8.72%
71 | COc1ccc(CCNc2cc(N3CCN(C(=O)c4ccc(C)cc4)CC3)ccc2[N+](=O)[O-])cc1OC | inconclusive [inhibitor, partial curve, poor fit] | 
